Laboratory results as given in PubChem BioAssay AID588855 (National Center for Advancing Translational Sciences (NCATS), 2011).
Among all 410,000 compounds or so, about 5,000 (1.2%) were called active. Inconclusive means that the source gave no clear call. Such entries were picked first, then a sample of the others. Calls come from the whole dose curve; as a rule, active = well fitted inhibition curve with a large enough effect; inconclusive = small, poorly fitted or top-dose-only effect; inactive = no such curve, though single readings can be large or run the other way. A potency beside an inconclusive call is a rough fit, not a confirmed value.

Assay: qHTS for Inhibitors of TGF-b; note: nearly all actives have a fitted effect of over 65% in size
Settings: HepG2 CAGA-GFP TGF-b/SMAD3 reporter, GFP fluorescence, 18 h, TGF-beta stimulated, 500 pg/mL final; series mostly up to 46.1 µM
Method in brief: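 Using HEPG2 CAGA-GFP reporter cells at 1000 cells/well, we pinned test compounds, stimulated with recombinant TGF-beta (500 pg/mL final) and measured total well GFP after 18 h.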
Potency is the fitted concentration of half-maximal effect; tags give direction and shape of the fitted curve.

**Q.** With `COc1ccc(C(c2nnnn2C2CCCC2)N2CCC(C)CC2)c(OC)c1` (stereo not drawn) as the molecule, how does the Potency read?
**A.** inactive

**Q.** With `COc1cccc2sc(N3CCN(C(=O)CCS(=O)(=O)c4ccc(F)cc4)CC3)nc12` as the molecule, how does the Potency read?
**A.** inconclusive: 11.2 µM [inhibitor, single point]

**Q.** Which Potency does the source give for `Cc1nc(NCC(=O)c2c[nH]c3ccccc23)sc1C` here?
**A.** inconclusive: 7.08 µM [inhibitor, full curve, poor fit]

**Q.** With `Cc1ccc(CNC(=O)C(=O)NCC(c2cccnc2)N2CCN(c3ccccc3F)CC2)cc1` (stereo not drawn) as the molecule, how does the Potency read?
**A.** inconclusive: 14.1 µM [inhibitor, partial curve, poor fit]

**Q.** Which Potency does the source give for `O=C(Nc1ccccc1F)c1ccc(CN2CCc3ccccc3C2)cc1` here?
**A.** inconclusive: 2.51 µM [inhibitor, partial curve, poor fit]

**Q.** For `Cc1ccc(S(=O)(=O)NCCC(=O)OCC(=O)N(C)c2ccccc2)cc1`, which Potency is on record?
**A.** inconclusive: 0.562 µM [inhibitor, full curve]

**Q.** With `COc1cc(C(=O)OCC(=O)NC2CCCCCC2)ccc1OCC(C)C` as the molecule, how does the Potency read?
**A.** inconclusive: 35.5 µM [inhibitor, single point]

**Q.** For `COC(=O)c1c(NC(=O)/C=C/C(=O)O)sc(C)c1-c1ccc(C)c(C)c1`, which Potency is on record?
**A.** inconclusive: 22.4 µM [inhibitor, single point]

**Q.** With `CC(C)c1nnc(NC(=O)Cc2ccc(Br)cc2)s1` as the molecule, how does the Potency read?
**A.** inconclusive: 0.708 µM [inhibitor, full curve, poor fit]

**Q.** For `NC(=O)c1oc2ccccc2c1NC(=O)c1nc2ccccc2s1`, which Potency is on record?
**A.** inactive

**Q.** Which Potency does the source give for `CCOc1ccccc1NC(=O)COc1ccc(S(=O)(=O)NC2CCCCC2)cc1` here?
**A.** inconclusive: 11.2 µM [inhibitor, single point]

**Q.** For `O=C(NCC1CCCO1)C(c1ccc(N2CCOCC2)cc1)N(C(=O)Cn1nnc2ccccc21)c1ccccc1F` (stereo not drawn), which Potency is on record?
**A.** inconclusive: 6.31 µM [inhibitor, single point]

**Q.** For `Cn1c(=O)c2cc(S(=O)(=O)NC(C(=O)Nc3cccc(F)c3)c3ccccc3)ccc2n(C)c1=O` (stereo not drawn), which Potency is on record?
**A.** inconclusive: 0.112 µM [inhibitor, full curve, poor fit]

**Q.** With `O=C(Nc1ccc(F)c(F)c1)C1CCCN1S(=O)(=O)c1cccc2nsnc12` (stereo not drawn) as the molecule, how does the Potency read?
**A.** inconclusive: 15.8 µM [inhibitor, single point]

**Q.** With `Cc1ccc(SCCNC(=S)Nc2ccc(C)c(C)c2)cc1` as the molecule, how does the Potency read?
**A.** inconclusive: 35.5 µM [inhibitor, single point]

**Q.** Which Potency does the source give for `COc1ccc(/C=C2/SC(=S)N(Cc3ccccc3)C2=O)cc1O` here?
**A.** inconclusive: 28.2 µM [inhibitor, single point]

**Q.** With `CC(C)Cc1ccc(C(C)C(N)=NCCc2ccccc2)cc1` (stereo not drawn) as the molecule, how does the Potency read?
**A.** inconclusive: 35.5 µM [inhibitor, single point]

**Q.** Which Potency does the source give for `CCCCCCN1C[C@H](n2cc(-c3ccc(F)cc3)nn2)[C@@H](O)C[C@@H]1c1ccccc1` here?
**A.** inconclusive: 35.5 µM [inhibitor, single point]

**Q.** For `Cc1ccc(O)c(NC(=O)CCS(=O)(=O)c2nc(-c3ccc4c(c3)OCO4)cc(C(F)(F)F)n2)c1`, which Potency is on record?
**A.** inconclusive: 15.8 µM [inhibitor, partial curve, poor fit]

**Q.** With `COc1ccc(-c2c(C#Cc3ccsc3)c3ccccc3n2C)cc1` as the molecule, how does the Potency read?
**A.** inconclusive: 3.55 µM [inhibitor, partial curve, poor fit]

**Q.** With `CC1(OC(=O)C2CCCC2)C(=O)C=C2C=C(c3ccsc3)N(C3CCCCC3)C=C2C1=O` (stereo not drawn) as the molecule, how does the Potency read?
**A.** inactive

**Q.** With `CN(C)CC1CCC/C(=C/c2ccc(Cl)cc2)C1=O` (stereo not drawn) as the molecule, how does the Potency read?
**A.** inconclusive: 0.224 µM [inhibitor, full curve, poor fit]

**Q.** Which Potency does the source give for `O=C(Nc1cc(Sc2nc3ccccc3s2)cc([N+](=O)[O-])c1)c1ccccc1` here?
**A.** inconclusive: 22.4 µM [inhibitor, single point]

**Q.** Which Potency does the source give for `CCN(CC)NC(=S)Nc1ccccc1` here?
**A.** inconclusive: 11.2 µM [inhibitor, single point]

**Q.** Which Potency does the source give for `CCc1ccc(-n2c(CCC(=O)O)ccc2-c2ccc(F)cc2)cc1` here?
**A.** inconclusive: 3.55 µM [inhibitor, full curve]

**Q.** For `COc1ccc(S(=O)(=O)N(CC(=O)Nc2cccnc2)c2ccc(C)cc2)cc1OC`, which Potency is on record?
**A.** inconclusive: 4.47 µM [inhibitor, single point]

**Q.** Which Potency does the source give for `COc1cc(C(=O)Nc2ccc(-c3nnc(-c4ccco4)o3)cc2)cc(OC)c1OC` here?
**A.** inactive

**Q.** For `O=C(Nc1ccccc1)C1=C[C@H](c2ccc(C(F)(F)F)cc2)C[C@H](OCCCCO)O1`, which Potency is on record?
**A.** inconclusive: 25.1 µM [inhibitor, single point]

**Q.** With `NC(=O)CC(NC(=O)Cc1ccc(Br)cc1)c1ccc(N2CCN(c3ccc(F)cc3)CC2)c([N+](=O)[O-])c1` (stereo not drawn) as the molecule, how does the Potency read?
**A.** inconclusive: 20 µM [inhibitor, single point]

**Q.** For `CC(=O)Oc1cccc(N2C(=O)c3ccc(C(=O)O)cc3C2=O)c1`, which Potency is on record?
**A.** inconclusive: 12.6 µM [inhibitor, single point]

**Q.** With `CC(NC(=O)C(=O)N1CCOCC1)C(c1cccs1)N1CCN(c2ccccc2F)CC1` (stereo not drawn) as the molecule, how does the Potency read?
**A.** inactive

**Q.** With `Cc1ccc(/C=C/C(=O)Nc2cccc(S(=O)(=O)N3CCOCC3)c2)o1` as the molecule, how does the Potency read?
**A.** inactive

**Q.** Which Potency does the source give for `CCOC(=O)C1CCCN(Cc2ccccc2C)C1` (stereo not drawn) here?
**A.** inconclusive: 2.51 µM [inhibitor, full curve, poor fit]

**Q.** With `Oc1ccc(C=NN=C2c3ccccc3-c3ccccc32)c(O)c1` as the molecule, how does the Potency read?
**A.** inconclusive: 35.5 µM [inhibitor, single point]

**Q.** With `COc1ccc(C(CC(=O)N2CCCC(C)C2)c2c(O)cc(OC)cc2OC)cc1` (stereo not drawn) as the molecule, how does the Potency read?
**A.** inactive

**Q.** With `COC(=O)/C=C1\NC(=O)C(C)S1` (stereo not drawn) as the molecule, how does the Potency read?
**A.** active: 0.562 µM

**Q.** Which Potency does the source give for `O=C(NC(=S)N1CCCc2ccccc21)c1ccco1` here?
**A.** inconclusive: 7.94 µM [inhibitor, single point]

**Q.** With `CCOc1ccc2c(c1)C(C)=CC(C)(C)N2S(=O)(=O)c1ccc(NC(C)=O)cc1` as the molecule, how does the Potency read?
**A.** inconclusive: 1.58 µM [inhibitor, partial curve, poor fit]

**Q.** For `CCC(=O)c1ccc(OCC(=O)OCc2csc(CC(=O)Nc3ccccc3C)n2)cc1`, which Potency is on record?
**A.** inactive

**Q.** Which Potency does the source give for `COc1cccc(C(C)(O)c2nc(-c3cccs3)cs2)c1` (stereo not drawn) here?
**A.** inactive

**Q.** Which Potency does the source give for `O=C1CN(c2ccc(Br)cc2)C(=O)N1CC(=O)N1CCCc2ccccc21` here?
**A.** inconclusive: 22.4 µM [inhibitor, single point]

**Q.** With `O=C(CSc1nnc2ccccn12)c1ccc2c(c1)OCCO2` as the molecule, how does the Potency read?
**A.** inconclusive: 22.4 µM [inhibitor, single point]

**Q.** With `S=C(NCc1ccco1)N1CCN(c2nc(-c3ccc(Cl)cc3)cs2)CC1` as the molecule, how does the Potency read?
**A.** inconclusive: 6.31 µM [inhibitor, partial curve]

**Q.** With `Cc1ccc(Cl)c(Cn2cnc3c(cnn3C(C)(C)C)c2=O)c1F` as the molecule, how does the Potency read?
**A.** inconclusive: 5.62 µM [inhibitor, single point]

**Q.** Which Potency does the source give for `CCO[C@@H]1OC(C(=O)N2CCCCCCC2)=C[C@H](c2ccc(C(F)(F)F)cc2)[C@H]1CCCO` here?
**A.** inconclusive: 15.8 µM [inhibitor, single point]

**Q.** For `O=S(=O)(c1ccccc1)c1nc(-c2ccc(F)cc2)oc1N1CCCCCC1`, which Potency is on record?
**A.** inconclusive: 35.5 µM [inhibitor, single point]

**Q.** Which Potency does the source give for `O=C(C1=C[C@@H](c2ccccc2)C[C@@H](OCCCCO)O1)N1CCN(Cc2ccc3c(c2)OCO3)CC1` here?
**A.** inconclusive: 5.62 µM [inhibitor, single point]

**Q.** Which Potency does the source give for `CC(=Nc1ccccc1)C1=C(O)C(Cc2ccc(O)cc2)NC1=O` (stereo not drawn) here?
**A.** inconclusive: 0.282 µM [inhibitor, full curve, poor fit]

**Q.** With `Cc1ccc(C)c(CNC(=O)c2cnc3sc(N4CCCC4)nn3c2=O)c1` as the molecule, how does the Potency read?
**A.** inconclusive: 12.6 µM [inhibitor, single point]

**Q.** Which Potency does the source give for `Cc1ccc(CN(Cc2ccco2)C(=O)c2oc3ccc(C)cc3c2C)cc1` here?
**A.** inconclusive: 10 µM [inhibitor, single point]

**Q.** With `Cc1cccc(-n2ncc3c(N4CCCCCC4)ncnc32)c1` as the molecule, how does the Potency read?
**A.** inactive

**Q.** Which Potency does the source give for `CC(C)(Cc1ccc(O)cc1)NC(=O)SCc1ccccc1` here?
**A.** inconclusive: 35.5 µM [inhibitor, single point]

**Q.** For `N#CC1=C(N)C2=CCCC[C@H]2[C@H](c2ccccc2)C1(C#N)C#N`, which Potency is on record?
**A.** inconclusive: 35.5 µM [inhibitor, single point]

**Q.** For `O=C(c1cc(COc2ccc(F)cc2Cl)on1)N1CCN(c2cnccn2)CC1`, which Potency is on record?
**A.** inconclusive: 35.5 µM [inhibitor, single point]

**Q.** For `Cc1ccc(CC(=O)O/N=C(\N)c2cccc([N+](=O)[O-])c2)cc1`, which Potency is on record?
**A.** inconclusive: 35.5 µM [inhibitor, single point]

**Q.** Which Potency does the source give for `CCCOc1ccccc1C1Oc2nc(SC)nnc2-c2ccccc2N1C(C)=O` (stereo not drawn) here?
**A.** inactive

**Q.** With `CCCCN1C(=O)C(O)(c2c(C)[nH]c3ccccc23)c2ccccc21` (stereo not drawn) as the molecule, how does the Potency read?
**A.** inconclusive: 35.5 µM [inhibitor, single point]

**Q.** For `Cc1csc2ncnc(N3CCN(C(=O)Nc4ccc(OC(F)(F)F)cc4)CC3)c12`, which Potency is on record?
**A.** inconclusive: 11.2 µM [inhibitor, partial curve, poor fit]

**Q.** For `O=S1(=O)CCO[C@H]2Cc3ccccc3[C@H]2N1Cc1cccc(F)c1`, which Potency is on record?
**A.** inactive

**Q.** For `CN1N=C(C(C)(C)C)CC1=O`, which Potency is on record?
**A.** inconclusive: 15.8 µM [inhibitor, partial curve, poor fit]

**Q.** For `O=S(=O)(c1ccc(OCC2CO2)cc1)c1ccc(OCC2CO2)cc1` (stereo not drawn), which Potency is on record?
**A.** inconclusive: 7.94 µM [inhibitor, partial curve, poor fit]

**Q.** For `NC(=S)NN=C1CCCCCCCCCC1`, which Potency is on record?
**A.** inconclusive: 10 µM [inhibitor, partial curve, poor fit]

**Q.** For `CN1CCN(CCCNC(=O)c2ccc3c(c2)N(Cc2ccc(F)cc2)CCS3)CC1`, which Potency is on record?
**A.** inconclusive: 35.5 µM [inhibitor, single point]
